Measurements published in PubChem BioAssay AID1345082 (National Center for Advancing Translational Sciences (NCATS), 2018).
Out of some 94,000 compounds screened, about 4,000 (4.3%) were called active. The shares of active, inactive and inconclusive entries below differ from those in the screen. Calls come from the whole dose curve; as a rule, active = well fitted inhibition curve with a large enough effect; inconclusive = small, poorly fitted or top-dose-only effect; inactive = no such curve, though single readings can be large or run the other way. Potencies of inconclusive entries are doubtful fits and often do not repeat.

assay: Cytotoxic Profiling in NIH 3T3 Cell Line of Diverse Libraries Using Quantitative High-Throughput Screening; conditions: NIH 3T3 viability, CellTiter-Glo ATP luminescence, 48-72 h; activity change, negative = cytotoxicity: at 96.7 µM (top of the series); series mostly up to 96.7 µM; note: nearly all actives have a fitted effect of over 55% in size
In short: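 Mouse fibroblast NIH 3T3 cells, 400 per well, received compound via pintool and were incubated for 48 or 72 hr prior to CellTiter-Glo ATP luminescence measurement.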
% is set by controls: 0 for no effect and ±100 for the full control effect; potency is the fitted concentration of half-maximal effect; tags give direction and shape of the fitted curve.

For `CN1CC(=O)N(C2CCNCC2)Cc2c(NCC3CCCCCC3)ncnc21`, which Potency is on record?
Its Potency is inconclusive: 50.1 µM [inhibitor, partial curve, poor fit].

With `CN(CCc1noc(C2CN(Cc3ccc(Cl)c(F)c3)C2)n1)S(C)(=O)=O` as the compound, how does the Potency read?
Its Potency is inconclusive: 44.7 µM [inhibitor, partial curve, poor fit].

With `Cc1c(CC(=O)NC(C)C2CC2)c2c(n1Cc1ccccc1F)CCCC2=O` (stereo unspecified) as the compound, how does the Potency read?
The Potency was inconclusive: 50.1 µM [inhibitor, partial curve, poor fit].

Which Potency does the source give for `CC(C)c1noc(C2CCCN(Cc3cn(C(C)C)c4ccccc34)CCC(=O)NCC2)n1` (stereo unspecified) here?
Its Potency is inconclusive: 50.1 µM [inhibitor, partial curve, poor fit].

Which Potency does the source give for `Cc1ccccc1C(=O)N1CCC2(CC1)C(=O)NCN2Cc1ccc(Cl)cc1` here?
Its Potency is inconclusive: 11.2 µM [inhibitor, full curve, poor fit].

With `CCn1c2c(c(=O)n1-c1ccccc1)CCN(C(=O)Cc1ccccc1)C2` as the compound, how does the Potency read?
Its Potency is inconclusive: 89.1 µM [inhibitor, partial curve].

With `COCCn1ncc(N2CCC(C(=O)NCc3nc4ccccc4n3C)C2)cc1=O` (stereo unspecified) as the compound, how does the Potency read?
Its Potency is inconclusive: 50.1 µM [inhibitor, partial curve, poor fit].

For `CC(C)C1=NOC2(CCN([S+](=O)([O-])c3cccc(C(F)(F)F)c3)C2)C1` (stereo unspecified), which Potency is on record?
Its Potency is inconclusive: 22.4 µM [inhibitor, single point].

Which Potency does the source give for `CN1c2cc(C(=O)Nc3cc(F)ccc3F)ccc2C(=O)N2CCCCCC21` (stereo unspecified) here?
The Potency was inconclusive: 50.1 µM [inhibitor, partial curve, poor fit].

With `COc1ccc(CN2CCc3nc(C(=O)NCc4cccc(F)c4)oc3CC2)cc1OC` as the compound, how does the Potency read?
The Potency was inconclusive: 22.4 µM [inhibitor, partial curve].

Which Potency does the source give for `COCCN1Cc2ccc(NCc3ccccc3)nc2C(C)(C(=O)NCc2ccccc2)C1` (stereo unspecified) here?
Its Potency is active: 44.7 µM.

For `COc1cccc(CCNC(=O)c2c(C)noc2-c2cc(OC)cc(OC)c2)c1`, which Potency is on record?
The Potency was inconclusive: 50.1 µM [inhibitor, partial curve, poor fit].

With `O=C1CCN(C(=O)[C@@H](Cc2ccccc2)NC(=O)Nc2ccccc2)CCOCCN1` as the compound, how does the “activity change, negative = cytotoxicity” value read?
Its value is inactive: -9.84%.

With `COCCOCC1(CNC(=O)c2ccc(OC)cc2)C[C@@H](O)[C@@H](O)C1` (stereo partly specified) as the compound, how does the “outcome” value read?
Its value is “inactive [at 138 µM]”.

For `O=Cc1ccccc1Oc1ccc(F)c(Cl)c1`, which Potency is on record?
Its Potency is inconclusive: 50.1 µM [inhibitor, partial curve, poor fit].

For `Cc1ccc(C(=O)N2CCc3[nH]nc(C(=O)NCCCc4ccccc4)c3C2)cc1`, which Potency is on record?
The Potency was inconclusive: 44.7 µM [inhibitor, partial curve, poor fit].
